Test results reported in a compilation of properties of binary mixtures (doi:10.1016/j.fluid.2020.112621).
The densities may have been worked out from excess volumes.

Assay: xn = mol fraction of the nth substance listed
Conditions: 101 kPa

CCCC[n+]1ccn(C)c1.COP(=O)([O-])OC + CC(=O)O.CC(=O)[O-].CC[NH+](CC)CCO
x2 = 0
Conditions | mass density [kg/m3]
278.15 K | 1174.1
288.15 K | 1166.8
293.15 K | 1163.4
303.15 K | 1157
308.15 K | 1153.7
313.15 K | 1150.1
318.15 K | 1147.1
323.15 K | 1143.6
328.15 K | 1140.3
333.15 K | 1137.4
338.15 K | 1134.2
343.15 K | 1130.7
348.15 K | 1127.5
363.15 K | 1118
368.15 K | 1114.8
373.15 K | 1111.7

CCCC[n+]1ccn(C)c1.O=S(=O)([N-]S(=O)(=O)C(F)(F)F)C(F)(F)F + CC(=O)[O-].CCCC[NH2+]CCO
x2 = 0
Conditions | mass density [kg/m3]
283.15 K | 1451.3
298.15 K | 1437
303.15 K | 1432.2
308.15 K | 1427.4
313.15 K | 1422.7
323.15 K | 1413.2
328.15 K | 1408.4
333.15 K | 1403.7
338.15 K | 1399
343.15 K | 1394.3
348.15 K | 1389.6
353.15 K | 1384.9
358.15 K | 1380.3
363.15 K | 1375.6
368.15 K | 1370.9
373.15 K | 1366.3

CCCC[n+]1ccn(C)c1.COP(=O)([O-])OC + CCC(=O)O.CCC(=O)[O-].CC[NH+](CC)CCO
x2 = 0
Conditions | mass density [kg/m3]
278.15 K | 1174.1
288.15 K | 1166.8
293.15 K | 1163.4
298.15 K | 1160.1
303.15 K | 1157
308.15 K | 1153.7
313.15 K | 1150.1
318.15 K | 1147.1
323.15 K | 1143.6
333.15 K | 1137.4
338.15 K | 1134.2
348.15 K | 1127.5
353.15 K | 1124.3
358.15 K | 1121.1
363.15 K | 1118
368.15 K | 1114.8

CCCC[n+]1ccn(C)c1.COP(=O)([O-])OC + CCCC(=O)[O-].CC[NH+](CC)CCO
x2 = 0
Conditions | mass density [kg/m3]
278.15 K | 1174.1
283.15 K | 1170.4
288.15 K | 1166.8
293.15 K | 1163.4
303.15 K | 1157
308.15 K | 1153.7
313.15 K | 1150.1
323.15 K | 1143.6
333.15 K | 1137.4
338.15 K | 1134.2
343.15 K | 1130.7
353.15 K | 1124.3
358.15 K | 1121.1
363.15 K | 1118
368.15 K | 1114.8

CCCC[n+]1ccn(C)c1.COP(=O)([O-])OC + CCCCC(=O)[O-].CC[NH+](CC)CCO
x2 = 0
Conditions | mass density [kg/m3]
278.15 K | 1174.1
283.15 K | 1170.4
288.15 K | 1166.8
293.15 K | 1163.4
298.15 K | 1160.1
308.15 K | 1153.7
313.15 K | 1150.1
318.15 K | 1147.1
333.15 K | 1137.4
338.15 K | 1134.2
343.15 K | 1130.7
353.15 K | 1124.3
363.15 K | 1118

CCCC[n+]1ccn(C)c1.COP(=O)([O-])OC + CCCCCC(=O)O.CCCCCC(=O)[O-].CC[NH+](CC)CCO
x2 = 0
Conditions | mass density [kg/m3]
278.15 K | 1174.1
283.15 K | 1170.4
288.15 K | 1166.8
293.15 K | 1163.4
308.15 K | 1153.7
313.15 K | 1150.1
323.15 K | 1143.6
328.15 K | 1140.3
338.15 K | 1134.2
343.15 K | 1130.7
348.15 K | 1127.5
353.15 K | 1124.3
368.15 K | 1114.8
373.15 K | 1111.7

CC(=O)O.CC(=O)[O-].CC[NH+](CC)CCO + CCCC[n+]1ccn(C)c1.COP(=O)([O-])OC
mass density [kg/m3]
Conditions | x1 = 0.0748 | x1 = 0.3316 | x1 = 0.4263 | x1 = 0.5275 | x1 = 0.6343 | x1 = 0.7493 | x1 = 0.8567 | x1 = 1
278.15 K | 1162.5 | – | 1118.5 | – | 1102.2 | 1092.9 | 1081.1 | 1068.4
283.15 K | 1158.8 | 1123.1 | 1114.5 | 1106.7 | 1098.2 | – | 1077 | 1064.3
288.15 K | 1155.2 | 1119.2 | 1110.5 | – | 1094.2 | 1085.2 | 1073 | 1060.4
293.15 K | – | 1115.3 | 1106.5 | 1098.6 | 1090.2 | – | 1069.1 | 1056.7
298.15 K | 1148.3 | 1111.4 | 1102.5 | – | – | 1077.5 | – | 1052.6
303.15 K | – | 1107.6 | 1098.6 | 1090.7 | 1082.4 | 1073.6 | 1061 | –
308.15 K | 1141.5 | – | 1094.7 | 1086.7 | 1078.5 | – | 1056.9 | 1044.6
313.15 K | 1138.3 | 1100.1 | 1090.7 | – | – | 1065.8 | 1052.9 | 1040.6
318.15 K | 1134.9 | 1096.4 | 1086.8 | 1078.8 | 1070.6 | 1061.8 | – | 1036.6
323.15 K | 1131.3 | 1092.6 | 1083 | – | – | 1057.8 | – | 1032.6
328.15 K | – | 1088.8 | – | 1070.8 | 1062.5 | – | 1040.7 | 1028.5
333.15 K | 1124.6 | 1085.1 | 1075.3 | 1066.7 | – | – | 1036.6 | 1024.5
338.15 K | – | 1081.3 | 1071.3 | 1062.7 | 1054.4 | 1045.7 | 1032.5 | 1020.4
343.15 K | 1118.2 | 1077.6 | 1067.4 | 1058.6 | 1050.3 | – | 1028.4 | 1016.3
348.15 K | 1114.6 | 1073.8 | 1063.5 | 1054.6 | – | 1037.6 | 1024.3 | –
353.15 K | 1111.3 | 1070.1 | 1059.5 | 1050.5 | 1042.1 | 1033.4 | 1020.1 | 1007.9
358.15 K | 1108.1 | 1066.3 | 1055.6 | – | 1038 | 1029.3 | – | –
363.15 K | 1104.8 | 1062.6 | 1051.7 | 1042.4 | 1033.8 | 1025.1 | 1011.6 | –
368.15 K | 1101.5 | 1058.9 | 1047.8 | – | – | 1020.9 | 1007.4 | 995.1
373.15 K | 1098.2 | 1055.2 | 1043.9 | 1034.3 | 1025.5 | 1016.7 | 1003 | 990.7

CCCCCC(=O)O.CCCCCC(=O)[O-].CC[NH+](CC)CCO + CCCC[n+]1ccn(C)c1.COP(=O)([O-])OC
mass density [kg/m3]
Conditions | x1 = 0.0684 | x1 = 0.1429 | x1 = 0.2213 | x1 = 0.3088 | x1 = 0.3966 | x1 = 0.4995 | x1 = 0.6088 | x1 = 0.7258 | x1 = 0.8535 | x1 = 1
278.15 K | 1150.3 | 1126.1 | – | 1082.3 | 1063.3 | 1045.4 | – | 1010.8 | 993.1 | 975
283.15 K | – | 1122.5 | 1100 | 1078.4 | 1059.4 | – | 1024.2 | – | 989.6 | 971.4
288.15 K | 1143.3 | 1118.9 | – | – | 1055.6 | 1037.8 | 1020.4 | 1003.4 | 986 | –
293.15 K | 1139.8 | 1115.2 | 1092.6 | 1070.9 | 1051.8 | – | 1016.7 | 999.7 | – | 964.3
298.15 K | 1136.3 | 1111.6 | – | – | 1048.1 | 1030.3 | 1012.9 | 996.3 | 978.8 | 960.8
303.15 K | 1132.8 | 1108.1 | – | 1063.5 | 1044.3 | 1026.5 | – | 992.6 | 975.1 | –
308.15 K | 1129.4 | – | 1081.8 | 1059.8 | 1040.5 | 1022.7 | 1005.4 | 988.9 | 971.5 | 953.6
313.15 K | – | 1101.2 | 1078.3 | – | 1036.7 | 1018.9 | 1001.6 | 985.2 | 967.8 | 950
318.15 K | 1122.7 | 1097.8 | 1074.7 | 1052.5 | – | 1015.2 | 998.1 | 981.4 | – | 946.4
323.15 K | 1119.4 | 1094.4 | 1071.2 | 1048.9 | – | 1011.4 | 994.3 | 977.7 | 960.6 | 942.7
328.15 K | 1116 | 1090.9 | 1067.7 | 1045.2 | 1025.3 | – | 990.4 | 973.9 | 956.9 | –
333.15 K | 1112.7 | 1087.5 | 1064.1 | 1041.5 | 1021.5 | 1003.8 | 986.6 | 970.1 | 953.2 | 935.4
338.15 K | – | 1084.1 | – | 1037.9 | 1017.7 | 1000 | 982.8 | 966.4 | 949.4 | –
343.15 K | – | 1080.7 | – | – | 1013.9 | 996.5 | 978.9 | 962.6 | 945.7 | 928
348.15 K | 1102.7 | 1077.3 | 1053.6 | 1030.7 | 1010.2 | 992.6 | 975.1 | 958.7 | 941.9 | –
353.15 K | 1099.3 | 1073.9 | – | 1027 | 1006.4 | – | 971.2 | – | 938.1 | –
358.15 K | 1096 | 1070.5 | – | 1023.4 | 1002.7 | 985 | 967.3 | 951.1 | 934.3 | –
363.15 K | 1092.7 | 1067.1 | 1043.1 | 1019.8 | 999.1 | 981.2 | 963.5 | 947.2 | 930.4 | 912.8
368.15 K | 1089.3 | 1063.7 | 1039.6 | 1016.2 | – | 977.4 | 959.6 | 943.3 | 926.5 | 908.9
373.15 K | 1086 | 1060.4 | – | 1012.6 | 993.1 | 973.6 | 955.7 | 939.4 | 922.6 | 904.9
